Experimental data reported in the supplement of paper PMC4967469.
The IC50 comes from the fitted curve, where viability falls to half of the control; fits outside the tested doses are given as limits. AUC, from the same fit, is the share of area under the viability curve across the 256-fold dose range; the more sensitive the line, the further below 1. For some of these results: Any top dose called inferred is not printed in the source and was worked back from the curve model. For some of these results: Where an entry number is given, a second screen of the drug exists; the two often differ.

Assays:
Test in all cases: Viability of human cancer cell lines after 72 h of drug (GDSC screen)
[1] = compound: CC1=C(/C=C/C(C)=C/C=C/C(C)=C/C(=O)O)C(C)(C)CCC1 [Tretinoin]; details: top dose 10 µM; top dose inferred
Procedure: (§1)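 Human cancer cell lines in 384-well plates, medium with 10% serum, drug for 72 h over a 256-fold dose range (nine 2-fold or five 4-fold steps up to the top dose). Adherent lines were fixed and stained with the nucleic acid dye Syto60, suspension lines read with resazurin; signal relative to control wells, capped at 0 and 100%. One two-parameter sigmoid per drug and line, fitted in a mixed model over all curves with the slope shared within a line.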

[2] = compound: CCn1c(-c2nonc2N)nc2c(C#CC(C)(C)O)ncc(OC[C@H]3CCCNC3)c21 [GSK690693]; details: top dose 10.24 µM; top dose inferred
Procedure: as §1

[3] = compound: COc1cc2c(NC3CCN(C(C)C)CC3)nc(C3CCCCC3)nc2cc1OCCCN1CCCC1 [UNC0638]
Procedure: as §1

[4] = compound: Cc1cccc(-c2[nH]c(C(C)(C)C)nc2-c2ccc3c(c2)OCO3)n1 [SB-505124]; details: top dose 10 µM; top dose inferred
Procedure: as §1

[5] = compound: Oc1cccc(-c2nc(N3CCOCC3)c3oc4ncccc4c3n2)c1 [PI-103]; details: top dose 10.24 µM
Procedure: as §1

[6] = compound: O=C(NCCCNc1nc(Nc2cccc(NC(=O)N3CCCC3)c2)ncc1I)c1cccs1 [BX-795]; details: top dose 5 µM; top dose inferred
Procedure: as §1

[7] = top dose 20 µM, screen: GDSC drug entry 1236, top dose inferred
[8] = top dose 40 µM, screen: GDSC drug entry 245

Cell Line | AUC [1] | IC50 [1] [µM] | AUC [2] | IC50 [2] [µM] | AUC [3, 7] | IC50 [3, 7] [µM] | AUC [3, 8] | IC50 [3, 8] [µM] | AUC [4] | IC50 [4] [µM] | AUC [5] | IC50 [5] [µM] | AUC [6] | IC50 [6] [µM]
A2058 (melanoma, adherent) | 0.93 | > 10 | 0.967 | > 10.2 | 0.843 | 11.9 | 0.889 | 37.1 | 0.971 | > 10 | 0.702 | 2.2 |  | 
ABC-1 (lung adenocarcinoma, adherent) | 0.983 | > 10 | 0.821 | 7.57 | 0.98 | > 20 | 0.981 | > 40 | 0.966 | > 10 | 0.47 | 0.52 |  | 
ACHN (kidney, adherent) | 0.932 | > 10 | 0.959 | > 10.2 | 0.876 | > 20 | 0.86 | > 40 | 0.98 | > 10 | 0.631 | 1.55 |  | 
AN3-CA (endometrium, adherent) | 0.972 | > 10 | 0.891 | > 10.2 | 0.983 | > 20 | 0.98 | > 40 | 0.964 | > 10 | 0.336 | 0.213 |  | 
CAKI-1 (kidney, adherent) | 0.852 | > 10 | 0.953 | > 10.2 | 0.863 | > 20 | 0.837 | > 40 | 0.973 | > 10 | 0.691 | 2.89 |  | 
CFPAC-1 (pancreas, adherent) | 0.931 | > 10 | 0.976 | > 10.2 |  |  |  |  | 0.982 | > 10 |  |  |  | 
DMS-53 (small cell lung carcinoma, adherent) | 0.988 | > 10 | 0.988 | > 10.2 | 0.868 | > 20 | 0.987 | > 40 | 0.951 | > 10 | 0.982 | > 10.2 |  | 
Daoy (medulloblastoma, adherent) | 0.933 | > 10 | 0.909 | > 10.2 | 0.815 | 9.69 | 0.719 | 9.72 | 0.98 | > 10 | 0.441 | 0.448 |  | 
EFM-19 (breast, adherent) | 0.918 | > 10 | 0.855 | > 10.2 | 0.833 | > 20 | 0.783 | 27.1 | 0.936 | > 10 | 0.657 | 2.19 |  | 
EPLC-272H (lung squamous cell carcinoma, adherent) | 0.983 | > 10 | 0.906 | > 10.2 | 0.783 | 9.57 | 0.584 | 4.39 | 0.978 | > 10 | 0.385 | 0.295 |  | 
G-MEL (melanoma, adherent) | 0.861 | 8.27 | 0.983 | > 10.2 | 0.807 | 10.2 | 0.905 | > 40 | 0.767 | 3.68 | 0.557 | 0.915 |  | 
H2722 (mesothelioma, adherent) | 0.984 | > 10 | 0.984 | > 10.2 | 0.79 | 10.9 | 0.822 | 29.4 | 0.939 | > 10 | 0.957 | > 10.2 |  | 
HCC70 (breast, adherent) | 0.98 | > 10 | 0.87 | 9.28 | 0.833 | 12.6 | 0.661 | 6.94 | 0.965 | > 10 | 0.714 | 2.54 |  | 
HCC2998 (large intestine, adherent) | 0.985 | > 10 | 0.953 | > 10.2 | 0.791 | 8.73 | 0.754 | 13.1 | 0.985 | > 10 | 0.98 | > 10.2 |  | 
HMV-II (melanoma, adherent) | 0.933 | > 10 | 0.935 | > 10.2 | 0.806 | 13 | 0.66 | 7.73 | 0.98 | > 10 | 0.739 | 3.66 |  | 
HOP-92 (large cell lung carcinoma, adherent) | 0.945 | > 10 | 0.984 | > 10.2 | 0.832 | 15.6 | 0.893 | > 40 | 0.966 | > 10 | 0.984 | > 10.2 |  | 
HSC-4 (head and neck, adherent) | 0.868 | > 10 | 0.911 | > 10.2 | 0.851 | > 20 | 0.965 | > 40 | 0.833 | 9.65 | 0.843 | > 10.2 |  | 
JHH-6 (liver, adherent) | 0.942 | > 10 | 0.987 | > 10.2 | 0.81 | 10.7 | 0.98 | > 40 | 0.926 | > 10 | 0.93 | > 10.2 |  | 
KYSE-70 (oesophagus, adherent) | 0.984 | > 10 | 0.968 | > 10.2 | 0.929 | > 20 | 0.841 | 31.5 | 0.958 | > 10 | 0.704 | 2.55 |  | 
M14 (melanoma, adherent) | 0.981 | > 10 | 0.987 | > 10.2 | 0.818 | 12.1 | 0.59 | 4.47 | 0.985 | > 10 | 0.987 | > 10.2 |  | 
MDA-MB-175-VII (breast, adherent) | 0.978 | > 10 | 0.841 | 8.23 | 0.986 | > 20 | 0.967 | > 40 | 0.986 | > 10 | 0.396 | 0.322 |  | 
MKN45 (stomach, adherent) | 0.937 | > 10 | 0.958 | > 10.2 | 0.853 | > 20 | 0.866 | > 40 | 0.941 | > 10 | 0.696 | 2.65 |  | 
Mewo (melanoma, adherent) | 0.875 | > 10 | 0.982 | > 10.2 | 0.816 | 13.9 | 0.749 | 15.3 | 0.983 | > 10 | 0.846 | 9.74 |  | 

Cell Line | AUC [1] | IC50 [1] [µM] | AUC [2] | IC50 [2] [µM] | AUC [3, 7] | IC50 [3, 7] [µM] | AUC [3, 8] | IC50 [3, 8] [µM] | AUC [4] | IC50 [4] [µM] | AUC [5] | IC50 [5] [µM] | AUC [6] | IC50 [6] [µM]
NCI-H292 (lung adenocarcinoma, adherent) | 0.832 | 8.39 | 0.979 | > 10.2 | 0.656 | 3.74 | 0.686 | 9.35 | 0.871 | > 10 | 0.813 | 7.05 |  | 
NCI-H441 (lung adenocarcinoma, adherent) | 0.954 | > 10 | 0.981 | > 10.2 | 0.874 | > 20 | 0.911 | > 40 | 0.978 | > 10 | 0.981 | > 10.2 |  | 
NCI-H1734 (lung adenocarcinoma, adherent) | 0.985 | > 10 | 0.943 | > 10.2 |  |  | 0.663 | 7.48 |  |  | 0.765 | 4.1 |  | 
NCI-H2029 (small cell lung carcinoma, adherent) | 0.985 | > 10 | 0.947 | > 10.2 | 0.943 | > 20 | 0.767 | 13.4 | 0.989 | > 10 | 0.892 | 10.1 |  | 
NCI-H2122 (lung adenocarcinoma, adherent) | 0.981 | > 10 | 0.983 | > 10.2 | 0.745 | 5.96 | 0.845 | 26.1 | 0.966 | > 10 | 0.813 | 5.1 |  | 
PA-TU-8988T (pancreas, adherent) | 0.938 | > 10 | 0.985 | > 10.2 | 0.948 | > 20 | 0.912 | > 40 | 0.895 | > 10 | 0.59 | 1.13 |  | 
PANC-08-13 (pancreas, adherent) | 0.974 | > 10 | 0.983 | > 10.2 | 0.83 | 17.7 | 0.716 | 12.3 | 0.979 | > 10 | 0.579 | 1.12 |  | 
RMG-I (ovary, adherent) | 0.983 | > 10 | 0.97 | > 10.2 | 0.888 | > 20 | 0.745 | 14.4 | 0.968 | > 10 | 0.454 | 0.47 |  | 
SCC-4 (head and neck, adherent) | 0.89 | > 10 | 0.975 | > 10.2 | 0.94 | > 20 | 0.971 | > 40 | 0.982 | > 10 | 0.961 | > 10.2 |  | 
SK-CO-1 (large intestine, adherent) |  |  | 0.989 | > 10.2 | 0.872 | 17.2 | 0.865 | 31.9 | 0.985 | > 10 | 0.989 | > 10.2 | 0.914 | > 5
SK-LU-1 (lung adenocarcinoma, adherent) |  |  | 0.981 | > 10.2 | 0.827 | 16.9 | 0.707 | 11.4 | 0.978 | > 10 | 0.668 | 2.14 | 0.836 | 4.68
SK-MEL-24 (melanoma, adherent) | 0.937 | > 10 | 0.983 | > 10.2 | 0.835 | 17.3 | 0.866 | > 40 | 0.981 | > 10 | 0.983 | > 10.2 |  | 
SK-MEL-28 (melanoma, adherent) |  |  | 0.988 | > 10.2 | 0.632 | 2.87 | 0.776 | 15.6 | 0.987 | > 10 | 0.729 | 2.83 | 0.913 | > 5
SU-DHL-10 (B-cell lymphoma, suspension) |  |  | 0.121 | 0.0744 | 0.869 | 10.1 | 0.749 | 9.98 | 0.994 | > 10 | 0.047 | 0.0418 | 0.853 | 2.29
SW900 (lung squamous cell carcinoma, adherent) |  |  | 0.985 | > 10.2 | 0.805 | 12.1 | 0.765 | 16.9 | 0.982 | > 10 | 0.845 | 9.23 | 0.899 | > 5
SW1990 (pancreas, adherent) | 0.982 | > 10 | 0.985 | > 10.2 | 0.983 | > 20 | 0.972 | > 40 | 0.97 | > 10 | 0.944 | > 10.2 |  | 
TCCSUP (bladder, adherent) |  |  | 0.984 | > 10.2 | 0.82 | 13.7 | 0.864 | > 40 | 0.966 | > 10 | 0.933 | > 10.2 | 0.891 | > 5
U031 (kidney, adherent) |  |  | 0.95 | > 10.2 | 0.574 | 2.01 | 0.752 | 13.7 | 0.983 | > 10 | 0.466 | 0.516 | 0.935 | > 5
U251 (glioma, adherent) | 0.985 | > 10 | 0.95 | > 10.2 | 0.881 | 19.2 | 0.762 | 13.7 | 0.792 | 4.29 | 0.791 | 4.37 |  | 
UM-UC-3 (bladder, adherent) | 0.988 | > 10 | 0.957 | > 10.2 | 0.959 | > 20 | 0.878 | 36.3 | 0.959 | > 10 | 0.281 | 0.161 |  | 
VM-CUB-1 (bladder, adherent) |  |  | 0.987 | > 10.2 | 0.975 | > 20 | 0.974 | > 40 | 0.987 | > 10 | 0.973 | > 10.2 | 0.796 | 2.26
VMRC-RCW (kidney, adherent) | 0.95 | > 10 | 0.986 | > 10.2 |  |  | 0.953 | > 40 |  |  | 0.806 | 4.76 |  | 
